According to article PMC4336329 (PLoS ONE, 2015):
Screen size: about 310,000 compounds; about 14,000 (4.5%) showed an effect of 50% or more. Effects have a minus sign here. The list shows a part of the results. Where a SMILES comes first, the peptide text is derived from it. The star is where a group is joined. Bz = O=C(c1ccccc1)*

target: human ether-à-go-go-related gene (hERG) potassium channel (human, UniProt Q12809); experiment: primary screen, population patch clamp on CHO cells stably expressing hERG
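Also: peak tail current of the secondary pulse compared with the same well before compound.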

Chain of human ether-à-go-go-related gene (hERG) potassium channel (Q12809 whole entry, looked up): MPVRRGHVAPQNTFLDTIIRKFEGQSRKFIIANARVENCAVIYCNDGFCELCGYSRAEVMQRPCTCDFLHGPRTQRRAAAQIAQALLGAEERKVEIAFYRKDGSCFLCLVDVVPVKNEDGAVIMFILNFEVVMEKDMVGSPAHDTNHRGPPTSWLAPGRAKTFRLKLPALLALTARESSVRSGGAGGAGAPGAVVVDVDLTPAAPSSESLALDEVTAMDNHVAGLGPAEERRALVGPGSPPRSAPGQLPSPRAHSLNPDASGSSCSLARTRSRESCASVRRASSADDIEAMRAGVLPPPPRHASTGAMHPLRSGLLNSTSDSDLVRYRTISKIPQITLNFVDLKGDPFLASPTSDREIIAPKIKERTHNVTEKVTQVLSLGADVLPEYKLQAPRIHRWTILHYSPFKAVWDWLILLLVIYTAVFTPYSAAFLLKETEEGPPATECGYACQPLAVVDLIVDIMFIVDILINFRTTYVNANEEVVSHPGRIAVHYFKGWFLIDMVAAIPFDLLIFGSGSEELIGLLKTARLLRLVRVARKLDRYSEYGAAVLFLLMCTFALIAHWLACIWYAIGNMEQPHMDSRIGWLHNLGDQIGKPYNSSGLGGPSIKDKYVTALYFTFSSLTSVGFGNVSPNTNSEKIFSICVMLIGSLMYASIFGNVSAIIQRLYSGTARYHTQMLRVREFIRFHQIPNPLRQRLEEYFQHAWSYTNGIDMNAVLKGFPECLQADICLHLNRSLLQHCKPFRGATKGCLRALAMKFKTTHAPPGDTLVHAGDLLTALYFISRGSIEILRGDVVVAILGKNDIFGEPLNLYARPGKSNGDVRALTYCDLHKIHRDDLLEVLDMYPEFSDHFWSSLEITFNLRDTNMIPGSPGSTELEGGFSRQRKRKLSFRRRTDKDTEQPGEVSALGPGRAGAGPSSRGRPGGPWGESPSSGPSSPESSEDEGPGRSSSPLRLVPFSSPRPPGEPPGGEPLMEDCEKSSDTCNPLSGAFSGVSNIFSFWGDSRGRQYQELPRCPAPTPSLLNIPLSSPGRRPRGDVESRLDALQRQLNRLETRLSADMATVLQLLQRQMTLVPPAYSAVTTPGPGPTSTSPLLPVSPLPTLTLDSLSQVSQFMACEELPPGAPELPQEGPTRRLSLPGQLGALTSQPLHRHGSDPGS

In order of rising “hERG current change (%, negative = inhibition) at 10uM” value:
1. COc1cc(C(=O)COC(=O)C2CCN(c3ccc(C(F)(F)F)cn3)CC2)ccc1OC(F)F  -59.1%
2. COc1ccc(C(=O)N/C(=C\c2cn(S(=O)(=O)N(C)C)c3ccccc23)C(=O)N2CCOCC2)cc1  -47%
3. O=C(NCCc1ccc(Cl)cc1)c1cccc(N2CCCC2=O)c1  -46.3%
4. CCCCCc1nc2sc3c(c2c(=O)n1NC(=O)c1ccc([N+](=O)[O-])cc1)CC(C)(C)OC3  -29.2%
5. CCn1c(SCC(=O)Nc2cccc(C)c2)nc2nc3c(cc2c1=O)COC(C)(C)C3  -23.1%
6. O=C(COC(=O)c1ccc(S(=O)(=O)N2CCOCC2)cc1)Nc1nc(-c2ccccc2)cs1  -15.8%
7. COC(=O)c1cc(C(=O)c2cc(Cl)ccc2O)coc1=N  -14.3%
8. CCCC(=O)C1=C(O)C(C(=O)OC)C(C)(C)CC1=Nc1ccccc1 (stereo not drawn)  -12%
9. COc1ccc(CCNC(=O)CS(=O)Cc2nc(-c3ccc(C)cc3)oc2C)cc1OC (stereo not drawn)  -10.9%
10. CC(C)(C)Nc1nc(SCc2ccccc2)nc(N2CCOCC2)n1  -10.5%
11. COc1ccccc1-c1c(C)nn2c(N3CCCCCC3)cc(C)nc12  -8.02%
12. Cc1c(C)c(C)c(S(=O)(=O)NCCc2ccccn2)c(C)c1C  -7.95%
13. CN(C)CCCOC(=O)C1c2ccccc2Oc2ccccc21.Cl  -7.6%
14. COc1ccc(-c2csc(NC(=S)NC(=O)/C=C/c3ccco3)n2)cc1OC  -5.17%
15. Cc1cc(C)c(C)c(S(=O)(=O)N2CCN(c3ncnc4ccccc34)CC2)c1C  -4.67%
16. CCCCC(=O)NC(c1ccccc1)c1ccc2cccnc2c1O (stereo not drawn)  -3.76%
17. COc1ccc(S(=O)(=O)N2CCCC(C(=O)NC3CC3)C2)cc1OC (stereo not drawn)  -3.52%
18. COc1ccc(/C=C/c2nc(S(=O)(=O)c3ccccc3)c(N(C)C)o2)cc1OC  -1.03%
19. CCCCOc1nc(N)nc(-c2ccccc2)n1  1.22%
20. COC(=O)C(NC(=O)C(NC(=O)c1ccccc1)C(C)C)C(C)C (stereo not drawn) (Bz-Val-Val-OMe; configuration not given here)  1.63%
21. Cc1noc(C)c1C(=O)OCC(=O)NCCC1=CCCCC1  2.18%
22. Nc1ccc(C(=O)O)c(O)c1.Nc1ccc(C(=O)O)c(O)c1  3.38%
23. O=C(OCc1c(-c2ccccc2)ncc2ccccc12)c1ccc(Cl)cc1Cl  3.51%
24. O=C(Nc1cccc(N=Cc2cc(Br)cc(Br)c2O)c1)c1ccco1  3.77%
25. COc1cccc(Cn2c(=O)oc3ccccc32)c1  4.3%
26. CCCCCC(=O)Nc1nc(C)c(-c2csc(Nc3ccccc3OCC)n2)s1  4.35%
27. Cc1cccc([C@@H]2[C@@H]3C(=O)N(Cc4ccccc4)C(=O)[C@@H]3[C@]3(CC(C)C)C(=O)N(c4cccc(Cl)c4)C(=O)N23)c1  4.4%
28. Cc1cccc(C)c1NC(=O)C(C)N1CCCC1 (stereo not drawn)  5.02%
29. O=C(O)c1ccc(C2SCC(=O)N2Cc2ccco2)cc1 (stereo not drawn)  5.14%
30. COc1ccc(CCNC(=O)CS(=O)(=O)c2cn(CC(=O)N3CCOCC3)c3ccccc23)cc1OC  6.4%
31. CCn1cc(/C=N/NC(=O)COc2cccc3cccnc23)c2ccccc21  8.01%
32. Cc1ccc(F)cc1NC(=O)Cc1nn(C)c(=O)c2ccccc12  8.8%
33. CC(=O)c1cccc(NS(=O)(=O)c2ccc3c(c2)N(C(C)=O)CCO3)c1  13.7%
34. CCn1cc(C(=O)O)c(=O)c2ccc(C)nc21  14.8%
35. O=C(O)c1[nH]c2ccccc2c1NS(=O)(=O)c1ccc(F)cc1  15.2%
36. CCn1ncc(NC(=S)NCCc2ccc(OC)c(OC)c2)c1C(N)=O  16.1%
37. COc1ccc2oc(CS(=O)c3ccccc3)c(C(=O)O)c2c1 (stereo not drawn)  16.8%
38. COC(=O)c1sc2ncccc2c1OCc1cccc(Cl)c1  18.3%
39. O=c1[nH]n(-c2ccccc2)c(=O)c2ccccc12  18.6%
40. Nc1nnc(CSCc2ccccc2Cl)s1  19%
41. O=C(CCNc1n[nH]c(=O)[nH]c1=O)N/N=C/c1ccc(C(F)(F)F)cc1  24%
42. O=C(c1ccc2c(=O)n(Cc3ccc(Cl)cc3)c(=S)[nH]c2c1)N1CCCC1  26%
